From ChEMBL document CHEMBL4888484, “Replenishing the malaria drug discovery pipeline: Screening and hit evaluation of the MMV Hit Generation Library 1 (HGL1) against asexual blood stage Plasmodium falciparum ,using a nano luciferase reporter read-out” (2022) come the findings set out here.

Among all 150,000 compounds or so, about 540 (0.36%) showed an effect of 50% or more. The list shows a part of the results.

In the test the test system is Plasmodium falciparum. Briefly: Primary screen in NF54 nanoGlo assay, in single point, at 2uM, 72h; a lower Z score goes with more inhibition. The class given is functional, Erythrocyte. Particulars: timepoint 72 hour.
Turning to `COc1ccc2[nH]c3c(c2c1)CC(C(=O)O)NC3c1ccc(OC)c(CN2CCN(c3ccccc3F)CC2)c1` (stereo not drawn), the % Inhibition (as a rule, the relative decrease from the control value, in per cent) worked out at 74% and the Z score is given as -11.3.
The like results for `CCC(=O)Nc1cccc(C(=O)OC)c1C` were, in that order, -7% and 1.
On to `O=C(Nc1cccc2nsnc12)[C@@H]1COc2ccccc2O1`, for which the “% Inhibition” value worked out at 3% and the Z score is recorded as -0.37.
In the case of `Cc1cc(Cn2cnc3c(cnn3C)c2=O)nn1C`, the “% Inhibition” value is -7% and the Z score stood at 1.33.
As to `O=C1CC[C@H](C(=O)N2CCC(c3nc4ccccc4o3)CC2)CN1`, the “% Inhibition” value was determined as 30% and the Z score is on record as -3.4.
With `O=C(NCc1ccccc1Cl)NCc1ccccc1CN1CCOCC1`, the “% Inhibition” value was -2% and the Z score was 0.18.
As to `O=C(N[C@@H]1CCC[C@H]1OC(F)F)N1CCc2n[nH]c(=O)cc2C1`, the “% Inhibition” value is reported as -7% and the Z score was 0.62.
Turning to `Cc1nc(C2(c3ccc(Cl)cc3)CCC2)n(C[C@H]2COCCO2)n1`, the “% Inhibition” value is -5% and the Z score was determined as 0.69.
Consider `CC(C)Cc1nc(Cn2cc(Br)cn2)no1`, for which the “% Inhibition” value is listed as -4% and the Z score is recorded as 0.58.
The like results for `CCn1nccc1-c1ccc2c(c1)OC[C@@H](N1CCCC1)[C@@H]2O` were, in that order, -6% and 1.07.
Consider `COc1ccc(-c2cc(C(=O)O)nc3c4cccnc4nn23)cc1`, for which the “% Inhibition” value is -17% and the Z score is listed as 2.09.
Taken in the same sequence, the figures for `Cc1cccc(OCc2nc(C)c(C(=O)Nc3sc4c(c3C#N)CC[C@H](C)C4)s2)c1` were -19% and 1.72.
As to `O=C(c1ccc([C@H]2CCCNC2)cc1)N1Cc2ccccc2C1`, the “% Inhibition” value is -14% and the Z score worked out at 2.37.
The like results for `O=S(=O)(Nc1ccccc1-c1nnc2n1CCCCC2)C1CC1` were, in that order, -6% and 0.56.
With `COc1cc(Cl)c(C)cc1NC(=O)c1cc(=O)n(-c2ccc(C)cc2)[nH]1`, the “% Inhibition” value is listed as 53% and the Z score was -6.9.
`Cn1ccc([C@H]2CCCN(C(=O)CNC(=O)c3ccccc3)C2)n1`: the “% Inhibition” value is -28% and the Z score is recorded as 3.22.
For the compound `O=C(NCc1ccco1)c1ccccc1NS(=O)(=O)c1ccc2c(c1)OCCO2`, the “% Inhibition” value is recorded as -3% and the Z score is reported as 0.42.
Take `Cc1cc(NS(=O)(=O)c2ccccc2)n(-c2cc(C)c3ccccc3n2)n1`: the “% Inhibition” value is listed as 6% and the Z score was -0.72.
In the case of `Cc1cc(CN2CCC(CO)CC2)c(C)s1`, the “% Inhibition” value is -1% and the Z score worked out at 0.11.
Regarding `C=CCn1c(O)c(CN2CCN(Cc3ccccc3)CC2)c(C)c(C#N)c1=O`, the “% Inhibition” value is -14% and the Z score worked out at 1.71.
Taken in the same sequence, the figures for `CCCCc1ccc(C(=O)N2[C@@H]3CC[C@H]2CNC(=O)C3)nc1` were -24% and 2.11.
`O=C(O)[C@H]1CCCN1C(=O)CC1CCc2ccccc2C1` (stereo partly drawn): the “% Inhibition” value is reported as -12% and the Z score was 1.49.
Taken in the same sequence, the figures for `CC(C)CCn1ncc(C(=O)NCC2CCN(C)CC2)c1C(C)C` were -1% and 0.11.
As for `O=C(c1ccccn1)N1CC2CCCCC2C1` (stereo not drawn), the “% Inhibition” value is reported as 28% and the Z score is listed as -3.16.
The like results for `CC[C@@](C)(C(=O)NC1CCCC1)N(C(=O)Cc1cccs1)c1ccccc1` were, in that order, 6% and -0.94.
Taken in the same sequence, the figures for `Cc1ccc(-n2nc(C)c3c2NC(=O)C[C@@H]3c2ccc(C(=O)O)cc2)cc1` were -5% and 0.67.
The like results for `CC[C@@H]1Oc2ccc(S(=O)(=O)N3CCN(C(=O)c4cc(OC)cc(OC)c4)CC3)cc2NC1=O` were, in that order, -18% and 1.81.
With `O=C(NCc1ccccc1)c1ccc(-c2cccs2)nc1`, the “% Inhibition” value is -20% and the Z score was determined as 3.86.
Turning to `Cc1cc(COc2cccc(C(=O)NC3CC3)c2)on1`, the “% Inhibition” value is -1% and the Z score is reported as 0.08.
On to `Cc1ccc(CS(=O)(=O)NC(=O)Cc2c[nH]c3ccc(F)cc23)c(C)c1`, for which the “% Inhibition” value is reported as -5% and the Z score was found to be 0.87.
The like results for `COc1cc(/N=C(/NCCN2CCOCC2)NC(=O)c2ccc3c(c2)OCO3)cc(OC)c1` were, in that order, -2% and 0.2.
Take `O=C(NCC(F)(F)F)c1ccccc1F`: the “% Inhibition” value is -3% and the Z score came to 0.65.
Regarding `CCn1ccc2cc(CN3C[C@@H]4CC[C@H]3CN(Cc3ccccn3)C4)ccc21`, the “% Inhibition” value is -3% and the Z score came to 0.48.
For the compound `CC(=O)Nc1nc(-c2ccc3c(c2)N(Cc2ccccc2)C(=O)CO3)cs1`, the “% Inhibition” value is given as -10% and the Z score is on record as 1.3.
As to `CCOC(=O)c1nccc(NC2C3CC2N(C(=O)OC(C)(C)C)C3)n1` (stereo not drawn), the “% Inhibition” value is -1% and the Z score turned out to be 0.19.
As to `COCCNC(=O)NCC1CCCN(C)C1c1cccs1` (stereo not drawn), the “% Inhibition” value is reported as -8% and the Z score is reported as 1.22.
The like results for `Clc1cccc2c1CC[C@@H]2NCc1csc(-c2ccccn2)n1` were, in that order, -7% and 0.67.
Take `C[C@]1(c2ccccc2)CCC(=O)N(CC2CCOCC2)C1`: the “% Inhibition” value was -16% and the Z score was found to be 3.
On to `Cn1nc(C(F)(F)F)c(CNC(=O)c2ccco2)c1Oc1ccccc1`, for which the “% Inhibition” value was determined as 1% and the Z score is given as -0.19.
As to `Cc1ccc(S(=O)(=O)NC[C@H]2CC[C@H](C(=O)N[C@H](CC(C)C)C(=O)N3CCCCC3)CC2)cc1`, the “% Inhibition” value is listed as -2% and the Z score is listed as 0.44.
Regarding `O=C(NCCCCOc1ccccc1)c1ncoc1[C@@H]1CCCO1`, the “% Inhibition” value is -2% and the Z score came out at 0.28.
For `CCn1nccc1C(=O)N1CCC[C@H](N(CCCN2CCOCC2)C(C)=O)C1`, the “% Inhibition” value was -4% and the Z score came to 0.47.
The like results for `C[C@@H](c1ccncc1)N(C)Cc1ccc2c(c1)CCO2` were, in that order, -9% and 1.02.
Regarding `COc1ccccc1CNC(=O)[C@]1(C)Cn2nc(-c3ccccc3)cc2C(=O)N1Cc1ccco1`, the “% Inhibition” value is on record as -14% and the Z score is on record as 2.16.
With `Cc1ccc2c(c1)c1c(n2CCc2ccccn2)CCN(C2CCNCC2)C1`, the “% Inhibition” value was found to be 0% and the Z score amounted to 0.06.
With `Cc1csc(COc2ccc(C(=O)Nc3cccc4nc(C)ccc34)cc2)n1`, the “% Inhibition” value was -7% and the Z score was 1.37.
Turning to `Cc1ccccc1C(=O)NCCc1n[nH]c(C2CCCCC2)n1`, the “% Inhibition” value is recorded as -11% and the Z score is reported as 2.12.
Regarding `Fc1cccnc1NCCc1cn2c(n1)CCCC2`, the “% Inhibition” value was 1% and the Z score was -0.1.
Regarding `Cc1nc(CCNC(=O)[C@H]2CCCN(C(=O)c3cccs3)C2)cs1`, the “% Inhibition” value is listed as 12% and the Z score is given as -1.54.
Taken in the same sequence, the figures for `CN(CCC(C)(C)C)Cc1nccn1C` were -3% and 0.3.
As for `CS(=O)(=O)N1CCN(C(=O)COc2cccc3c2CCC3=O)CC1`, the “% Inhibition” value is on record as 0% and the Z score is 0.01.
Regarding `Cc1ocnc1CNC(=O)CC1=CCCCC1`, the “% Inhibition” value was -3% and the Z score is on record as 0.37.
Taken in the same sequence, the figures for `COC(=O)c1ccc(Nc2ccc(N3CCCC3)c(C)c2)nn1` were -4% and 0.59.
The like results for `CCN1CCC(N[C@H]2C[C@@H](C(=O)NC(C)C)N(Cc3ccc4ccccc4c3)C2)CC1` were, in that order, -3% and 0.43.
For the compound `O=C1Nc2ccc(Br)cc2[C@@H]1c1cc(Br)ccc1O`, the “% Inhibition” value is listed as -11% and the Z score was 1.36.
As to `CC1(C)CN(CCCNC(=O)C2CCCC2)CCO1`, the “% Inhibition” value was -1% and the Z score is 0.1.
The like results for `COc1ccc(NC(=O)C2[C@H]3C=C[C@@]4(O3)C(C(=O)NC3CCCC(C)C3C)N(C3CCCCC3)C(=O)[C@@H]24)cc1` (stereo partly drawn) were, in that order, 3% and -0.32.
In the case of `CC(C)C(=O)N[C@@]1(C(F)(F)F)NC(=O)N(Cc2cccnc2)C1=O`, the “% Inhibition” value is given as -7% and the Z score is recorded as 1.12.
The like results for `Cn1cc(Cl)c(CNC(=O)N2CCC(OC3CCC3)CC2)n1` were, in that order, -18% and 2.74.
For the compound `CC(C)Nc1nc(N(C)c2ccccc2)nc(-n2ccnc2)n1`, the “% Inhibition” value stood at 5% and the Z score was -0.65.
With `COC(=O)c1ccccc1N(C)C(=O)CN1CCC[C@H]1c1ccc2c(c1)OCCCO2`, the “% Inhibition” value was -14% and the Z score is 1.46.
Taken in the same sequence, the figures for `CC(C)(C)c1nsc(NC(=O)N2CCN(c3ncccc3F)CC2)n1` were 13% and -2.09.
In the case of `C[C@@H](c1ccccc1)N(Cc1cccc(F)c1)Cc1nc(C(=O)NCc2ccccc2)co1`, the “% Inhibition” value is on record as -5% and the Z score came to 0.93.
Take `CN1CCN(C(=O)c2ccc(Oc3ccc(C(F)(F)F)cn3)cc2)[C@H](c2ccccc2)C1`: the “% Inhibition” value is given as -19% and the Z score is 2.43.
Consider `Clc1cc(Br)ccc1-c1nnc(-c2cnccn2)o1`, for which the “% Inhibition” value is listed as -9% and the Z score worked out at 1.44.
Taken in the same sequence, the figures for `O=C(Nc1nc(-c2cccc(Cl)c2)cs1)[C@]1(O)CCCNC1` were -18% and 2.7.
The like results for `O=C(c1ncn2c(=O)n(C3CCCCC3)nnc12)N1CCOCC1` were, in that order, 2% and -0.31.
`O=C(C[C@@H]1NC(=O)c2ccccc2N=C1O)NC1CCCCCCC1`: the “% Inhibition” value is reported as -6% and the Z score was 0.8.
As to `COCCc1nc(CNC(=O)[C@@]2(C)CC[C@@H](C(=O)N(C)C)C2(C)C)no1`, the “% Inhibition” value came to 0% and the Z score is given as -0.01.
Take `CCCNCCNC(=O)c1cc(Br)ccc1O`: the “% Inhibition” value worked out at 7% and the Z score is given as -1.21.
With `CN(C(=O)c1nnc(C(C)(C)C)s1)[C@@H](CCO)c1ccccc1`, the “% Inhibition” value is listed as 4% and the Z score was -0.41.
The like results for `Cc1cccc(C)c1N1C(=O)[C@H]2[C@@H](C1=O)[C@]1(N[C@H]2C(C)C)C(=O)Nc2ccccc21` were, in that order, -3% and 0.34.
As to `COc1ccc(C(=O)N(CC(=O)N(CCc2ccccc2)Cc2ccco2)CC(C)C)cc1`, the “% Inhibition” value is on record as -13% and the Z score was determined as 1.72.
Taken in the same sequence, the figures for `CNC(=O)C1CCCCC1NC(=O)C(F)(F)c1ccc(OC)cc1` (stereo not drawn) were -5% and 0.53.
The like results for `COCCCNC(=O)NC1CC(C)N(C2CC2)C1` (stereo not drawn) were, in that order, -5% and 0.72.
For `O=C(Cc1ccc(Cl)cc1)N1CCc2n[nH]c(=O)n2CC1`, the “% Inhibition” value was -5% and the Z score amounted to 0.87.
As to `CCCn1c(=O)n(CCC(=O)N(C)[C@@H](C(=O)OC)c2cc(F)ccc2F)c2ccccc21`, the “% Inhibition” value was 2% and the Z score is listed as -0.28.
As for `Cc1ccc(Cl)cc1N1CCN(C(=O)c2ccc3c(c2)NC(=O)[C@@H]2CCCCN32)CC1`, the “% Inhibition” value is recorded as -6% and the Z score came to 0.82.
With `CC1CCN(C[C@H]2CCCN(Cc3nc4ccccc4o3)C2)CC1`, the “% Inhibition” value was 0% and the Z score is recorded as 0.06.
For `COc1ccc(Cl)cc1-c1ccnc(O)c1`, the “% Inhibition” value is -7% and the Z score is 1.19.
In the case of `O=C(Cn1cnnn1)NCCC1CC2CCC1C2` (stereo not drawn), the “% Inhibition” value is 4% and the Z score is -0.59.
The like results for `CCCNC(=O)[C@H](C)NC(=O)c1cccc(Cl)c1` were, in that order, 1% and -0.14.
`Cc1c([C@H](C)NC(=O)c2ccccn2)cnn1C`: the “% Inhibition” value is recorded as 25% and the Z score is -2.82.
Taken in the same sequence, the figures for `Cc1cnccc1CN(C)C(=O)c1c[nH]c(=O)[nH]c1=O` were 1% and -0.08.
